According to patent US20220313819A1, “COMBINATION THERAPY FOR THE TREATMENT OF SOLID AND HEMATOLOGICAL CANCERS” (Arch Oncology, Inc., priority 2019, published 2022):

B1: VLX8 IgG1 N297Q (xi): chimeric VLX8 anti-CD47 mAb, human IgG1 N297Q (antibody)
heavy: EVQLQQSGPELMKPGASVKISCKASGYSFTNYYIHWVNQSHGKSLEWIGYIDPLNGDTTYNQKFKGKATLTVDKSSSTAYMRLSSLTSADSAVYYCARGGKRAMDYWGQGTSVTVSS[human IgG1 constant region with changes not given here]
light: DIQMTQTTSSLSASLGDRVTISCRASQDISNYLNWYQQKPDGTVKLLIYYTSRLYSGVPSRFSGSGSGTDYSLTISNLEQEDIATYFCQQGNTLPWTFGGGTKLEIKRTVAAPSVFIFPPSDEQLKSGTASVVCLLNNFYPREAKVQWKVDNALQSGNSQESVTEQDSKDSTYSLSSTLTLSKADYEKHKVYACEVTHQGLSSPVTKSFNRGEC
B2: VLX8 IgG4 PE (xi): chimeric VLX8 anti-CD47 mAb, human IgG4 PE (antibody)
heavy: EVQLQQSGPELMKPGASVKISCKASGYSFTNYYIHWVNQSHGKSLEWIGYIDPLNGDTTYNQKFKGKATLTVDKSSSTAYMRLSSLTSADSAVYYCARGGKRAMDYWGQGTSVTVSSASTKGPSVFPLAPCSRSTSESTAALGCLVKDYFPEPVTVSWNSGALTSGVHTFPAVLQSSGLYSLSSVVTVPSSSLGTKTYTCNVDHKPSNTKVDKRV[human IgG4 Fc with changes not given here]
light: B1 light
B3: VLX9 IgG1 N297Q (xi): chimeric VLX9 anti-CD47 mAb, human IgG1 N297Q (antibody)
heavy: QVQLQQFGAELAKPGASVQMSCKASGYTFTNYWIHWVKQRPGQGLEWIGYTDPRTDYTEYNQKFKDKATLAADRSSSTAYMRLSSLTSEDSAVYYCAGGGRVGLGYWGHGSSVTVSS[human IgG1 constant region with changes not given here]
light: DVFMTQTPLSLPVSLGDQASISCRSSQNIVQSNGNTYLEWYLQKPGQSPKLLIYKVFHRFSGVPDRFSGSGSGTDFTLKISRVEAEDLGVYYCFQGSHVPWTFGGGTKVEIKRTVAAPSVFIFPPSDEQLKSGTASVVCLLNNFYPREAKVQWKVDNALQSGNSQESVTEQDSKDSTYSLSSTLTLSKADYEKHKVYACEVTHQGLSSPVTKSFNRGEC
B4: VLX9 IgG4 PE (xi): chimeric VLX9 anti-CD47 mAb, human IgG4 PE (antibody)
heavy: QVQLQQFGAELAKPGASVQMSCKASGYTFTNYWIHWVKQRPGQGLEWIGYTDPRTDYTEYNQKFKDKATLAADRSSSTAYMRLSSLTSEDSAVYYCAGGGRVGLGYWGHGSSVTVSSASTKGPSVFPLAPCSRSTSESTAALGCLVKDYFPEPVTVSWNSGALTSGVHTFPAVLQSSGLYSLSSVVTVPSSSLGTKTYTCNVDHKPSNTKVDKRV[human IgG4 Fc with changes not given here]
light: B3 light
B5: VLX4 IgG1 (xi): chimeric (murine-human) VLX4 anti-CD47 mAb, human IgG1 (antibody)
heavy: EVQLQQSGPELVKPGASVKMSCKASGYTFTNYVIHWVKRRPGQGLEWIGYIYPYNDGILYNEKFKGKATVTSDKSSSTAYMDLSSLTSEDSAVYYCTRGGYYVPDYWGQGTTLTVSS[human IgG1 constant region not given here]
light: DVLMTQTPLSLPVNLGDQASISCRSRQSIVHTNGNTYLGWFLQKPGQSPKLLIYKVSNRFSGVPDRFSGSGSGTDFTLTISRVEAEDLGVYYCFQGSHVPYTFGGGTKLEIKRTVAAPSVFIFPPSDEQLKSGTASVVCLLNNFYPREAKVQWKVDNALQSGNSQESVTEQDSKDSTYSLSSTLTLSKADYEKHKVYACEVTHQGLSSPVTKSFNRGEC
B6: VLX4 IgG1 N297Q (xi): chimeric VLX4 anti-CD47 mAb, human IgG1 N297Q (antibody)
heavy: EVQLQQSGPELVKPGASVKMSCKASGYTFTNYVIHWVKRRPGQGLEWIGYIYPYNDGILYNEKFKGKATVTSDKSSSTAYMDLSSLTSEDSAVYYCTRGGYYVPDYWGQGTTLTVSS[human IgG1 constant region with changes not given here]
light: B5 light
B7: VLX9 IgG1 (xi): chimeric VLX9 anti-CD47 mAb, human IgG1 (antibody)
heavy: QVQLQQFGAELAKPGASVQMSCKASGYTFTNYWIHWVKQRPGQGLEWIGYTDPRTDYTEYNQKFKDKATLAADRSSSTAYMRLSSLTSEDSAVYYCAGGGRVGLGYWGHGSSVTVSS[human IgG1 constant region not given here]
light: B3 light

test system: Jurkat cells; assay: Phagocytosis of tumor cells by human macrophages; type: cell-based; settings: 1 μg/ml mAb
Procedure: Human derived macrophages were derived from leukapheresis of healthy human peripheral blood and incubated in AIM-V media (Life Technologies) for 7-10 days. For the in vitro phagocytosis assay, macrophages were re-plated at a concentration of 1×10^4 cells per well in 100 ul of AIM-V media in a 96-well plate and allowed to adhere for 24 hrs. Once the effector macrophages adhered to the culture dish, the target human cancer cells (Jurkat) were labelled with 1 μM 5(6)-Carboxyfluorescein diacetate N-succinimidyl ester (CFSE; Sigma Aldrich) and added to the macrophage cultures at a concentration of 5×10^4 cells in […] of AIM-V media (5:1 target to effector ratio). VLX4, VLX8, and VLX9 CD47 mAbs (1 μg/ml) were added immediately upon mixture of target and effector cells and allowed to incubate at 37° C. for 2-3 hours. After 2-3 hrs, all non-phagocytosed cells were removed and the remaining cells washed three times with phosphate buffered saline (PBS; Sigma Aldrich). Cells were then trypsinized, collected into microcentrifuge tubes, and incubated in 100 ng of allophycocyanin (APC) labelled CD14 antibodies (BD Biosciences) for 30 minutes, washed once, and analyzed by flow cytometry (Accuri C6; BD Biosciences) for the percentage of CD14^+ cells that were also CFSE^+ indicating complete phagocytosis.

Molecule	phagocytosis of Jurkat cells by human macrophages
B1	increase phagocytosis
B2	increased phagocytosis
B3	increased phagocytosis
B4	increased phagocytosis
B5	increased phagocytosis
B6	increased phagocytosis

test system: hRBCs; assay: Hemagglutination of washed human red blood cells; type: cell-based; settings: hemagglutination; chimeric (xi) mAbs, Table 1
Procedure: Hemagglutination of hRBCs was assessed following incubation of hRBCs with various concentrations of chimeric and humanized VLX4, VLX8, and VLX9 mAbs in vitro essentially as described by Kikuchi et al. Biochem Biophys Res. Commun (2004) 315:912-918. Blood was obtained from healthy donors, diluted (1:50) in PBS/1 mM EDTA/BSA and washed 3 times with PBS/EDTA/BSA. hRBCs were added to U-bottomed 96 well plates with equal volumes of the antibodies (75 μl of each) and incubated for 3 hrs at 37° C. and overnight at 4° C.

Molecule	HA hRBC
B1	Yes
B2	Yes
B3	Yes
B4	Yes
B7	Yes
B5	Yes
B6	Yes

same assay, conditions: result in words; mAb concentrations from 50 μg/ml down

Molecule	visible hemagglutination of hRBCs
B2	caused visible hemagglutination

test system: Jurkat cells; assay: Cell death by soluble mAb, annexin V / 7-AAD; type: cell-based, human; settings: 1 μg/ml, 24 hrs
Procedure: Induction of cell death by soluble anti-CD47 mAbs is measured in vitro (Manna et al. (2003) J. Immunol. 107 (7): 3544-53, Kikuchi et al. Biochem Biophys Res. Commun. 315: 912-8, 2004), Pettersen et al. J. Immuno. 162: 7031-7040, 1999), Manna et al. Cancer Research, 64: 1026-1036, 2004). For the in vitro cell death assay, 1×10^5 transformed human T cells (Jurkat cells) were incubated with soluble humanized VLX4, VLX8, and VLX9 CD47 mAbs (1 μg/ml) for 24 hrs at 37° C. As cell death occurs, mitochondrial membrane potential is decreased, the inner leaflet of the cell membrane is inverted, exposing phosphatidylserines (PS), and propidium iodide (PI) or 7-aminoactinomycin D (7-AAD) is able to incorporate into nuclear DNA. In order to detect these cellular changes, cells were then stained with fluorescently labelled annexin V and PI or 7-aminoactinomycin D (7-AAD) (BD Biosciences) and the signal detected using an Accuri C6 flow cytometer (BD Biosciences). The increase in PS exposure is determined by measuring the percent increase in annexin V signal and the percent of dead cells by measuring the percent increase in PI or 7-AAD signal. Annexin V positive (annexin V^+) or annexin V positive/7-AAD negative (annexin V^+/7-AAD^−) cells are observed in early stages of cell death and annexin V positive/7-AAD positive (annexin V^+/7-AAD^+) cells are dead cells. […]

Molecule	PS exposure and cell death of Jurkat cells (annexin V^+, annexin V^+/7-AAD^−, annexin V^+/7-AAD^+)
B1	induced increased PS exposure and cell death
B2	induced increased PS exposure and cell death
